Results published in PubChem BioAssay AID488969 (Vanderbilt High Throughput Screening Facility, 2010).
Whole data set: some 110,000 compounds, median “z-score” near -0.1, cut for the highest 2% near 2. The list shows a part of the results. Calls of active or inactive are those of the source.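 The calls were made as follows: active = z-score in the third read window above 3 or below -3; inactive = the rest.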

Each compound was assayed against Metabotropic glutamate receptor 8 (Rattus norvegicus) (UniProt P70579) (assay: mGluR8 Gi/Go-coupled signaling modulation – cell-based, rat, thallium flux, HTS, primary screen (AID 488969)). Conditions: HEK293 rat mGluR8, GIRK (G protein-gated inwardly rectifying potassium channel) thallium flux, FluoZin2; at 10 µM; stronger effect = higher value; submaximal glutamate (EC20) added with thallium.
Sequence of UniProt P70579 (P70579 whole entry, looked up): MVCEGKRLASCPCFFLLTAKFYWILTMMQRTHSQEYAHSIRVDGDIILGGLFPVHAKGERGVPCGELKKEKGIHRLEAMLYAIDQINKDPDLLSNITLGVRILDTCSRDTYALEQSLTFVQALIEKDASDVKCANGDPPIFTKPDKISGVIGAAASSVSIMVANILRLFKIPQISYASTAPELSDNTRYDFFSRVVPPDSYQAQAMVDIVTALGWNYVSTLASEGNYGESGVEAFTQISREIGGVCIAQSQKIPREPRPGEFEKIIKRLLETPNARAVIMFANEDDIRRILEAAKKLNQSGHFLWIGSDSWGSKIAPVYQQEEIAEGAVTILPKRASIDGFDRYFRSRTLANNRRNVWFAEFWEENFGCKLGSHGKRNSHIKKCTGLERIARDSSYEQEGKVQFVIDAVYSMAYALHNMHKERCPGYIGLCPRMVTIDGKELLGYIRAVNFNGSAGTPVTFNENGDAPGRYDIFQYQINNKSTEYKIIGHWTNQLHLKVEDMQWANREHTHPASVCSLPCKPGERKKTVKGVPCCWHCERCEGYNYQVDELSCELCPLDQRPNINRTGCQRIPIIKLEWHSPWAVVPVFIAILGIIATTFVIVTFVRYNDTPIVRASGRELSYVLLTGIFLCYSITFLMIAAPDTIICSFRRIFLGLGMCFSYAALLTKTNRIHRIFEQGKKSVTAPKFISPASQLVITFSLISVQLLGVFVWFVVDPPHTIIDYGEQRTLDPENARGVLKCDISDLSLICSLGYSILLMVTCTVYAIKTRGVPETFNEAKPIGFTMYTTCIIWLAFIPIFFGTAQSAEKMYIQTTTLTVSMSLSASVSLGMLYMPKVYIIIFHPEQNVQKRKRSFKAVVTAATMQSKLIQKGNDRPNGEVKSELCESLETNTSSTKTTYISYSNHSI

| SMILES | z-score |
| --- | --- |
| COc1cc(CNCCc2ccc(S(N)(=O)=O)cc2)ccc1OCC(=O)NC1CCCCC1 | -0.0552 |
| CN(c1ccc(C(=O)NCc2cccnc2)cc1)S(C)(=O)=O | 0.374 |
| COc1ccccc1Nc1nc(C)cc(C)c1C(N)=O | -0.333 |
| O=C1CCC(=O)N1OCCOc1ccc2c(c1)CCC2 | 0.0895 |
| O=C(OCCN=C1NS(=O)(=O)c2ccccc21)c1ccncc1 | 0.427 |
| CC(=O)Oc1ccc([N+](=O)[O-])cc1N1C(=O)c2ccccc2C1=O | -0.388 |
| CCOc1ccccc1N(CC(=O)Nc1ccccc1C(=O)NCc1ccco1)S(C)(=O)=O | 0.306 |
| Cc1ccc(S(=O)(=O)c2c(N)n(CCN3CCOCC3)c3nc4ccccc4nc23)cc1C | -0.192 |
| Nc1ccccc1SCC(=O)Nc1ccc(N2CCOCC2)cc1 | 2.53 |
| O=C(NCCNCc1ccc(F)cc1)c1ccco1 | -0.0503 |
| CC(=O)c1cn(CC(=O)Nc2ccc(C)cc2C)c2ccccc12 | 0.372 |
| CNC(=O)CSc1nc(-c2ccccc2)c(-c2ccccc2)[nH]1 | -0.0369 |
| Cc1sc2ncnc(OCC(=O)Nc3ccc4c(c3)OCCO4)c2c1C | -0.098 |
| COc1ccc2cc3cc(C(=O)N4CCN(c5ccccc5)CC4)oc3nc2c1 | 0.408 |
| CCN1C(=O)c2cccc3c(S(=O)(=O)NC(Cc4c[nH]c5ccccc45)C(=O)O)ccc1c23 (stereo not drawn) | 0.241 |
| CC(C)CCOCC(O)CCC(=O)NNC(=S)Nc1ccccc1 (stereo not drawn) | -2.1 |
| Oc1cccc2ccc(/C=C/c3cccs3)nc12 | 1.14 |
| CCN(CC)CCN1C(=O)C(=O)/C(=C(/O)c2cnn(-c3ccccc3)c2C)C1c1cccnc1 (stereo not drawn) | 0.34 |
| C=CCNC(=S)NNC(=O)COc1c(Cl)cc(Cl)cc1Cl | 0.71 |
| C/C=C/c1ccccc1OCc1ccc(C(=O)OC)o1 | 0.425 |
| CCSc1ncc(/C=N/Nc2ccc(F)cc2)n1C | 0.0175 |
| CN(C=O)CP(=O)(O)CCN1CCCC1=O | -2.28 |
| COCCCNC(=O)/C(C#N)=C/c1ccc(OCC(=O)O)c(OC)c1 | -0.149 |

| SMILES | z-score |
| --- | --- |
| Cc1cc(NS(=O)(=O)N(C)C)ccc1C(C)C | -0.428 |
| COc1ccc2c(-c3ccccc3)cc(=O)[nH]c2c1 | -0.684 |
| O=C(NCC(c1cccnc1)N1CCN(c2ccc(F)cc2)CC1)OCc1ccccc1 (stereo not drawn) | -1.47 |
| Cc1ccc(OCc2nn3c(-c4ccco4)nnc3s2)cc1 | -1.14 |
| COc1ccc(S(=O)(=O)N(CCN2CCOCC2)Cc2cc(OC)ccc2OC)cc1 | -0.389 |
| Cc1cc(NCCO)c2ccccc2n1 | 0.274 |
| CCOC(=O)CNC1CC(=O)N(c2cccc(Cl)c2)C1=O (stereo not drawn) | -0.279 |
| NC(=O)c1c(NC(=O)CN2C(=O)CCC2=O)sc2c1CCCCC2 | 0.585 |
| CCOC(=O)N1CCN(CC(O)COc2ccc(C)cc2C(C)(C)C)CC1 (stereo not drawn) | -0.0543 |
| CCCCC(=O)NC(=S)NNS(=O)(=O)c1ccccc1 | 0.0312 |
| CCn1cc(CNC(=O)CCc2ccc(OC)cc2)cn1 | 0.0492 |
| O=C(NCc1n[nH]c(=S)n1-c1ccc(F)cc1)c1ccco1 | -0.0102 |
| Cc1nnc(OCc2nc3ccccc3n2C)c2ccccc12 | -0.493 |
| O=C(COC(=O)CCc1c[nH]c(=O)[nH]1)Nc1ccccc1Cl | 0.146 |
| O=S1(=O)CCC(NS(=O)(=O)/C=C/c2ccccc2)C1 (stereo not drawn) | -0.00689 |
| CNC(=S)N1N=C(c2ccc(Br)cc2)CC1c1ccc(OC)cc1 (stereo not drawn) | -0.146 |
| CCn1c(-c2ccc(F)cc2)cnc1SCC(=O)N1CCc2ccccc21 | -0.138 |
| Cc1cnn(-c2cc(N/N=C/c3cccc(F)c3)ncn2)c1 | -0.225 |
| COC(=O)c1sc(NC(=O)c2ccc(OC)cc2OC)nc1C | 0.414 |
| COc1ccccc1C(=O)Nc1cc2ccccc2oc1=O | 0.011 |
| CN(c1ccc(C(=O)NCCSC(C)(C)C)cc1)S(C)(=O)=O | -0.208 |
| CC(NC(=O)Cn1c(=O)[nH]c2ccsc2c1=O)C12CC3CC(CC(C3)C1)C2 (stereo not drawn) | -1.91 |
| COc1cc(OC)nc(NC(=O)CSc2nc3ccccc3[nH]2)n1 | 0.673 |

| SMILES | z-score |
| --- | --- |
| COc1ccc(NC(=O)Cn2nnc(-c3ccccc3NC(=O)c3ccco3)n2)cc1 | -0.441 |
| Cc1cc(C(=O)CSc2nnnn2C)c(C)n1CCc1ccc(F)cc1 | -0.0216 |
| CC(C)(C)c1ccc(C(=O)N2CCNCC2)cc1 | -1.41 |
| Cc1ccc(CNC(=O)c2ccc(N3CCc4ccccc43)c([N+](=O)[O-])c2)cc1 | 0.00045 |
| CC(C)NC(=O)c1ccc(-c2cc(C(F)(F)F)ccc2Cl)o1 | -0.101 |
| COc1ccc(-c2noc(CCC(=O)N(C)c3cccc(C)c3)n2)cc1 | -0.987 |
| OC1CCCN(c2c3c(nc4cc(-c5cccc(Cl)c5)nn24)CCC3)C1 (stereo not drawn) | -0.591 |
| O=C(CCC(=O)c1cccs1)c1cccs1 | -0.0451 |
| Cc1nc([N+](=O)[O-])nn1C12CC3CC(CC(Br)(C3)C1)C2 | -0.0526 |
| C=CCNc1sc(C(=O)C2CC2)c(N)c1C#N | -0.389 |
| O=C(CCC(=O)c1ccc(F)cc1)Nc1cccc(S(=O)(=O)Nc2cccc(Cl)c2)c1 | -0.116 |
| CC1=C(C(=O)O)N2C(=O)C(NC(=O)c3nn(C)cc3Cl)C2SC1 (stereo not drawn) | -0.314 |
| O=c1c2c(n3cnnc3n1C1CCCCC1)-c1ccccc1CC21CCCCC1 | -0.288 |
| Brc1ccc(-c2nc(-c3cccnc3)no2)o1 | -0.481 |
| CCCOC(=O)c1ccc(NC(=O)CCOc2ccccc2)cc1 | -0.163 |
| O=C(Cc1c(Cl)cccc1Cl)OCC(=O)N1CCc2ccccc2C1 | -0.602 |
| CCC(=O)N(Cc1ccc(C)cc1)Cc1cc2cc3c(cc2[nH]c1=O)OCO3 | -0.276 |
| O=C(NNS(=O)(=O)c1ccccc1)c1cccs1 | -0.0511 |
| O=C(CSCc1cccc(Cl)c1)N1CCN(Cc2ccc3c(c2)OCO3)CC1 | 0.923 |
| CCOCC(=O)Nc1nc2ccc(OC)cc2s1 | 0.28 |
| CCCCC(=O)Nc1nn(CC(C)C)c2nc3ccccc3cc12 | -0.533 |
| CCOC(=O)c1sc(NCC2CCCO2)nc1C (stereo not drawn) | 0.07 |
| CCCS(=O)(=O)N1CCCC(C(=O)NCCCOCC)C1 (stereo not drawn) | 0.147 |

| SMILES | z-score |
| --- | --- |
| COc1ccc(/C=C/C(=O)NC(=S)NN2CCCCC2c2cccnc2)cc1OC (stereo not drawn) | 0.0576 |
| CCOC(=O)C(CC)n1cnc2sc3c(c2c1=O)CCC3 (stereo not drawn) | -0.321 |
| COc1ccc(-c2nnc(NC(=O)c3ccc(F)cc3)o2)cc1 | active: 5.46 |
| CC(=O)Oc1cccc(N2C(=O)C3C4C=CC(C4=C(C)C)C3C2=O)c1 (stereo not drawn) | -1.01 |
| O=C(COC(=O)c1ccc(S(=O)(=O)N2CCOCC2)cc1)Nc1nc(-c2ccccc2)cs1 | 0.333 |
| CCOCCn1c(CN(Cc2ccccc2)Cc2ccccc2)nc2c1c(=O)n(C)c(=O)n2C | 0.389 |
| Cn1c(Cc2ccccc2)nnc1SCC(=O)N1CCN(c2ccccc2)CC1 | 0.344 |
| CCOC(=O)c1ccc(N2Cc3ccccc3C2=N)cc1 | -0.161 |
| COc1ccc(NC(=O)C(c2cc3c(cc2[N+](=O)[O-])OCO3)N(C)c2ccccc2)cc1 (stereo not drawn) | -0.662 |
| Cc1ccc(C(=O)/C=C/c2c[nH]c3ccccc23)cc1 | -0.133 |
| Cc1ccc(SCc2cc(=O)[nH]c(/N=C(\N)Nc3ccc(C)c(C)c3)n2)cc1 | -0.104 |
| O=C(COC(=O)Cn1cnc2ccccc2c1=O)Nc1ccccc1Sc1ccc(Cl)cc1 | 0.148 |
| Cc1nn(Cc2c(Cl)cccc2Cl)c(C)c1NC(=O)c1cn(-c2ccccc2)nc1-c1ccccc1 | 0.0645 |
| CCOC(=O)C(O)(CC(=O)Nc1ccc(Cl)cc1Cl)C(F)(F)F (stereo not drawn) | 0.0131 |
| CCOC(=O)CN(C(=O)CSc1nnc(-c2ccc(OC)c(OC)c2)o1)c1ccc(F)cc1 | 0.0821 |
| COc1cc(S(=O)(=O)N2CCCCC2)ccc1NC(=O)c1ccccc1Cl | -2.09 |
| O=C(c1cccc(N2C(=O)C3C4C=CC(C4)C3C2=O)c1)N1CCCCCC1 (stereo not drawn) | -0.208 |
| Cc1ccc(NC(=O)CCC(=O)NNC(=O)c2ccco2)cc1C | -0.178 |
| O=C(COc1ccc(Br)cc1)NCc1ccccn1 | -0.391 |
| O=C(c1ccc(C23CC4CC(CC(C4)C2)C3)o1)N1CCOCC1 | 1.64 |
| Fc1ccc(CSc2ncnc3scc(-c4ccccc4)c23)cc1 | -0.149 |
| Nn1c(COc2ccc(Cl)cc2)nc2ccccc2c1=O | -0.285 |
| Cc1cccc(Oc2ncc(-c3ccc(Cl)cc3)cn2)c1 | 0.0612 |

| SMILES | z-score |
| --- | --- |
| COC(=O)N/N=C/c1cccnc1 | -0.224 |
| CC(C)Cc1nc(N2CCOCC2)c(C#N)c2c1CCC2 | -0.603 |
| COC(=O)NCC(c1cccnc1)N1CCN(c2ccccc2)CC1 (stereo not drawn) | -0.0866 |
| ONC(=Nc1ccccc1)c1ccccc1Cl | -0.0413 |
| CCN1CCN(c2nc(Nc3ccc(C)c(C)c3)nc(N)c2[N+](=O)[O-])CC1 | 0.0631 |
| Cc1ccccc1-c1nc2cc(Cl)ccc2o1 | 0.302 |
| CC(C)[C@H](N)c1nnc(SC/C=C/c2ccccc2)o1 | -0.475 |
| CCOC(=O)c1ccc(NC(=O)c2ccccc2[N+](=O)[O-])cc1 | -0.169 |
| COc1cc(OC)c(S(=O)(=O)N2CCCCC2)cc1S(=O)(=O)N1CCCCC1 | 0.721 |
| CC(=O)Nc1ccc(OC(=O)C(CCS(C)(=O)=O)N2C(=O)c3ccccc3C2=O)cc1 (stereo not drawn) | 0.407 |
| Nc1ccc(-c2nc3c(Cl)c(N)ccc3[nH]2)cc1 | 0.205 |
| CCCn1c(CNC(=O)c2cccs2)nc2ccccc21 | -0.517 |
| CCS(=O)(=O)N1CCCC(C(=O)NCCN(C)Cc2ccccc2)C1 (stereo not drawn) | -0.167 |
| Cc1cc(NC(=O)CSc2nnc(Cc3ccccc3)o2)no1 | 0.0242 |
| Cc1noc(/C=C/N(C)C)c1S(=O)(=O)NC1CCCCC1 | -0.658 |
| CC(C)(C)OC(=O)N1CCC(c2c(C(=O)O)cnn2-c2ccc(Cl)cc2)CC1 | 0.071 |
| CCC(C)NC(=O)c1c(N)n(/N=C/c2cccs2)c2nc3ccccc3nc12 (stereo not drawn) | 0.0751 |
| O=C1c2ccccc2C(=O)N1OS(=O)(=O)c1ccccc1 | 0.0113 |
| COc1ccc(S(=O)(=O)N2CCC(C(=O)N3CCc4ccccc4C3)CC2)cc1C | -0.772 |
| Cc1ccccc1NC(=O)c1ccc(CSc2ncccn2)cc1 | -0.061 |
| Cc1cc(C(=O)COC(=O)c2ccc(CO)cc2)c(C)n1CC1COc2ccccc2O1 (stereo not drawn) | -0.0509 |
